Reference: patent US20040258668A1 (priority 2001, published 2004)

Test system: LLC-MK2 cells infected with SeV18+SEAP/ΔF-GFP
Assay: GFP expression and cell damage by fluorescence microscopy
Conditions: four and six days after aspirin addition, 0.625-5 mM
Procedure: GFP expression level and cell damage were also periodically observed using fluorescence microscopy.
Fluorescence microscopy pictures taken four and six days after aspirin addition (six and eight days after SeV infection, respectively) are shown in FIG. 3. […] The effect of adding 5 mM aspirin was significant.

`CC(=O)Oc1ccccc1C(=O)O` [aspirin, acetylsalicylic acid] was tested, and the “GFP expression and cell damage” value was “concentration-dependent decreases in GFP expression and in cell damage”.
